From PubChem BioAssay AID1159614 (National Center for Advancing Translational Sciences (NCATS), 2016)
Among all 45,000 compounds or so, about 65 (0.1%) were called active. The call rests on the fitted dose curve; in most records, active means well fitted activation curve with a large enough effect; inconclusive means small, poorly fitted or top-dose-only effect; inactive means no such curve, though single readings can be large or run the other way. The list shows a part of the results.

These molecules were tested against Galactocerebrosidase (Homo sapiens) (UniProt P54803) (assay: A Novel Cell-Based Assay to Identify Small Molecules for B -Galactocerebrosidase). Settings: 145M-Twi-hGALC-G270D cells (Twitcher mouse brain line with human GALC G270D), HMU-beta-Gal fluorescence, 48 h; series mostly up to 57.5 µM; activation: at the top concentration.
Summary of the method: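 Brain-derived Twitcher mouse 145M-Twi cells stably expressing human GALC-G270D or wild-type GALC, treated live, then residual GALC activity read by fluorescence of HMU-b-Gal substrate (0.1 mM final) in citrate-phosphate buffer pH 5.2 with sodium taurocholate. Signal increase indicates enhancement.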
Further: 0% is about no effect; nearly all actives have a fitted effect of over 65% in size.

UniProt P54803, sequence (P54803 whole entry, looked up): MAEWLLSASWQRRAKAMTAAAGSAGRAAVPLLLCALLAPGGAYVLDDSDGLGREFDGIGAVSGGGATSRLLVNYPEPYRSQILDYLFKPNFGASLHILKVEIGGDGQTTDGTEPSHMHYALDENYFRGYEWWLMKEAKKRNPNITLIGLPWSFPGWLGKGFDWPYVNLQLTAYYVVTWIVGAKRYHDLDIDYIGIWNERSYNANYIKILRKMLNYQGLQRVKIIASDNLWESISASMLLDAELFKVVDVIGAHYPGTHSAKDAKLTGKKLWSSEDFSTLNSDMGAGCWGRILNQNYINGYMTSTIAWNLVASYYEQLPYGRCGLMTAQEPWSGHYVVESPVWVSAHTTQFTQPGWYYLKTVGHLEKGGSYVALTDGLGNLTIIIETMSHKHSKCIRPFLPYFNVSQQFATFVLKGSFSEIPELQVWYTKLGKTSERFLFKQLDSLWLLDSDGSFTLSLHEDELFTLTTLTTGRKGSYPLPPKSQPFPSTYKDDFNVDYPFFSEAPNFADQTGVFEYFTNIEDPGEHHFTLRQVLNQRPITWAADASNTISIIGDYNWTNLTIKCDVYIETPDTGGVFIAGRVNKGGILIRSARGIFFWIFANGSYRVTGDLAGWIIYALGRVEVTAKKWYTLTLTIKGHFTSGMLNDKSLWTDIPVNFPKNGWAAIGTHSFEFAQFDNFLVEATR

activation, inactive:
Oc1c(C(c2cccc(Br)c2)N2CCCC2)sc2nc(-c3ccco3)nn12 (stereo unspecified) 10.4%
CCOc1ccc(CNC(=O)Cn2nc(N3CCN(c4ccccc4)CC3)ccc2=O)cc1 -34.1%
COc1ccccc1CNC(=O)CSc1nc2nc(C)c(Cc3ccccc3C)c(C)n2n1 -21.4%
O=C(NCc1ccc(Cl)cc1)C1CCN(C(=O)c2cnn(-c3ccccc3)c2-n2cccc2)CC1 -11.4%
Cc1ccc(C(=O)Nc2c(C)nc3ccccn3c2=O)cc1 -5.54%
O=C(NCc1cccs1)c1ccc(CSc2nc3cccnc3n2Cc2ccc(F)cc2)cc1 -8.54%
Cc1ccc2c(c1)cc1c(=O)n(CC(=O)NC(C)CCc3ccccc3)nc(C)n12 (stereo unspecified) -10.6%
CCOc1nc(NC(=O)NS(=O)(=O)Oc2cccc(Cl)c2)nc(-c2ccccc2)n1 -5.56%
Cc1cc(C)cc(NC(=O)C2CCN(C(=O)c3cnn(-c4ccccc4)c3-n3cccc3)CC2)c1 -15.1%
CC1CCn2c(nc3cc(C(=O)NCc4ccc(F)cc4)ccc32)C1 (stereo unspecified) -17.9%
Cn1c2c(c(=O)n(C)c1=O)C(c1ccccc1[N+](=O)[O-])CC(=O)N2 (stereo unspecified) -6.69%
CCc1ccccc1NC(=O)CSc1nc2n[nH]c(C)c2c(=N)n1-c1cccc(C)c1 -12%
COc1ccccc1CNc1ccc(-c2nc(-c3ccccc3C)no2)cc1[N+](=O)[O-] -42.6%
COc1ccc(-c2nn(-c3ccc(F)cc3)c3c2cnc2cc4c(cc23)OCO4)cc1 1.85%
CCOC(=O)c1nn2c(C(F)(F)F)cc(-c3ccc(C)cc3)nc2c1Cl -0.7%
CCCCC(=O)Nc1nnc(SCc2cc(=O)n3cc(C)ccc3n2)s1 -5.02%
O=C(Nc1ccc(F)c(F)c1)c1cc(S(=O)(=O)NCc2ccc3c(c2)OCO3)ccc1F -8.26%
COc1ccc(C2=NC3(CCCCCC3)N(CC(=O)Nc3cccc(Cl)c3)C2=O)cc1 -7.53%
CC(C)(C)NCC(O)c1ccc(O)c(CO)c1 (stereo unspecified) -12.7%
COc1cccc(CNC(=O)CN2CCCN(Cc3ccccc3)S2(=O)=O)c1 -7.23%
Cc1ccn2c(Nc3ccc4c(c3)OCO4)c(-c3ccc(Cl)cc3)nc2c1 -8.97%
COc1ccc(-c2c(C#N)c(SCC(=O)Nc3ccc(C)cc3)nc(C)c2C(=O)Nc2ccccc2)cc1 -4.38%
Cc1ccc(CNC(=O)CSc2nc(=O)n(Cc3ccco3)c3c2CCC3)cc1 -8.72%
CCOc1ccc(-c2nnc(SCC(=O)NC(C)CC)nc2-c2ccc(OCC)c(OC)c2)cc1OC (stereo unspecified) -1.99%
COc1cccc(NC(=O)Cn2c(=O)ccc3cc(S(=O)(=O)N4CCC(C)CC4)ccc32)c1 -22.3%
CCSc1nc2c([nH]c3ccccc32)c(=O)n1-c1cccc(OC)c1 -31.8%
COc1ccc(Cl)cc1S(=O)(=O)N1CCN(CC(=O)Nc2ccccc2C(F)(F)F)CC1 -9.05%
CCOc1ccc(-n2nc3ccc(NC(=O)c4cccc(F)c4)cc3n2)cc1 -4.41%
CC1CCN(C(=O)Cn2cc(SCC(=O)Nc3ccccc3C(F)(F)F)c3ccccc32)CC1 15.7%
COc1ccc(-c2nc(CCNC(=O)c3c(F)cccc3Cl)cs2)cc1 -23.2%
CCCCc1nn2c(=O)cc(COC(=O)c3ccco3)nc2s1 -5.06%
CCCCNc1ccc(-c2nc(-c3ccncc3)no2)cc1[N+](=O)[O-] -15.4%
COc1ccc(Cn2cc(C(=O)c3ccc(F)cc3)c(=O)c3cc4c(cc32)OCCO4)cc1 -11.9%
Cc1nn(C)c(C)c1CCNC(=O)Nc1cccc(Cl)c1C -4.28%
COc1cc(C(=O)Nc2cccc(OCc3cc(=O)n4cc(C)sc4n3)c2)cc(OC)c1OC -9.59%
CC(=O)Nc1nonc1-c1nnc(SCC(=O)Nc2cccc(C)c2C)n1-c1ccccc1 -11.2%
COc1ccc(-c2nc3ccccc3o2)cc1NC(=O)c1ccc(-c2ccc(Br)cc2)o1 -7.7%
Cc1ccc(CN2C(=O)C(=O)c3cc(Br)cc(C)c32)cc1 -10.1%
CSc1ccc(CCNC(=O)Cn2ncn3c(cc4ccccc43)c2=O)cc1 -14%
CCN1C(=O)N(c2ccc(C(C)=O)cc2)S(=O)(=O)c2ccccc21 -6.72%
CCOc1ccc(-n2c(=O)c3c(C)c(C)sc3n(CC(=O)Nc3ccc(CC)cc3)c2=O)cc1 6.76%
Cc1ccccc1Nc1c(-c2cccnc2)nc2cccc(C)n12 -24.1%
CCC(C(=O)Nc1ccccc1)n1nc(-c2cc(C)ccc2C)ccc1=O (stereo unspecified) -6.08%
Cc1cccc(NC(=O)C2CCCN(S(=O)(=O)c3c(C)n[nH]c3C)C2)c1 (stereo unspecified) -2.3%
COc1ccc(Br)cc1CNC(=O)c1cnc2sc(N3CCCCCC3)nn2c1=O -11.1%
Cn1nc(-c2ccc(OCC(=O)Nc3ccc(Cl)cc3)cc2)c2ccccc2c1=O -17.8%
CCN(C(=O)c1cc2c(=O)n(CC)c3ccccc3c2s1)c1cccc(C(F)(F)F)c1 -41.6%
COc1ccccc1Nc1c2c(nc3ccc(NC(=O)/C=C/c4cc(OC)c(OC)c(OC)c4)cc13)CCCC2 -50.2%
CCCCCc1ccc(-c2ccc(C(=O)Oc3ccc(C(=O)OC)cc3)cc2)nc1 -11.8%
Cc1ccc(S(=O)(=O)C2(C(=O)Nc3ccc(C(C)C)cc3)CC2)cc1 -15.5%
COc1ccccc1CNC(=O)c1ccc(CSc2nc3ccncc3n2Cc2ccccc2C)cc1 -13.5%
COc1ccc(CNc2nc(-c3ccc(Cl)cc3)nn2C(=O)c2ccccc2)cc1 -6.25%
CC(C)c1ccc(NC(=O)C2Cc3ccccc3N2C(=O)c2ccccc2)cc1 (stereo unspecified) -21%
Cc1nc(-c2ccc(S(=O)(=O)N(C)Cc3ccccc3)cc2)co1 -23.2%
Cc1cc(C)cc(N2C(=O)CS(=O)(=O)C23C(=O)N(C)c2ccccc23)c1 (stereo unspecified) -22.5%
Cc1ccc(-n2ncc(C(=O)N3CCN(c4ncccn4)CC3)c2C2CCN(C(=O)OC(C)(C)C)CC2)cc1 -3.69%
CCOc1ccc(-n2cc(-c3ccccc3)c3c(NCc4ccc(F)cc4)ncnc32)cc1 0.529%
CCCN(CCC)S(=O)(=O)c1ccc(N2CCCCS2(=O)=O)cc1 -7.49%
Cc1ccc(NC(=O)C2CCN(c3nc4ccccc4nc3C(F)(F)F)CC2)cc1C -11.8%
CCN(CC)C(=O)CSc1cn(CC(=O)N2CCCCCC2)c2ccccc12 -7.16%
CCOC(=O)Cn1nc(C)c(NC(=O)COc2ccc(C)c(C)c2)c1C -14%
